Source: the supplement of paper PMC8728848
Some of the results follow.

Key:
Experiment in all cases: glycan array binding signal (z-score within array); higher = stronger binding
Conditions in all cases: glycan notation: IUPAC condensed, linker removed
Gal(a1-6)Glc = biological target: Gal(a1-6)Glc
Procedure, shortened: (§1)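 Negative Z-scores can be read as non-binding. The Z-score is calculated within each array and then averaged across arrays of one protein sequence at different concentrations or buffers and across linkers. Arrays, 3228 in all, were curated from the Consortium for Functional Glycomics database and kept only where the protein sequence was available.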

Gal(b1-2)Gal = biological target: Gal(b1-2)Gal
Procedure, shortened: as §1

Gal(b1-3)Gal = biological target: Gal(b1-3)Gal
Procedure, shortened: as §1

Gal(b1-3)Gal(b1-4)GlcNAc = biological target: Gal(b1-3)Gal(b1-4)GlcNAc
Procedure, shortened: as §1

Gal(b1-3)GalNAc = biological target: Gal(b1-3)GalNAc
Procedure, shortened: as §1

[1] = biological target: Gal(b1-3)GalNAc(a1-3)[Fuc(a1-2)]Gal(b1-4)Glc
Procedure, shortened: as §1

[2] = biological target: Gal(b1-3)GalNAc(a1-3)[Fuc(a1-2)]Gal(b1-4)GlcNAc
Procedure, shortened: as §1

Gal(b1-3)GalNAc(b1-3)Gal = biological target: Gal(b1-3)GalNAc(b1-3)Gal
Procedure, shortened: as §1

[3] = biological target: Gal(b1-3)GalNAc(b1-3)Gal(a1-4)Gal(b1-4)Glc
Procedure, shortened: as §1

[4] = biological target: Gal(b1-3)GalNAc(b1-4)Gal(b1-4)Glc
Procedure, shortened: as §1

[5] = biological target: Gal(b1-3)GalNAc(b1-4)[Neu5Ac(a2-3)]Gal(b1-4)Glc
Procedure, shortened: as §1

Gal(b1-3)GlcNAc = biological target: Gal(b1-3)GlcNAc
Procedure, shortened: as §1

[6] = biological target: Gal(b1-3)GlcNAc(a1-3)Gal(b1-4)GlcNAc
Procedure, shortened: as §1

[7] = biological target: Gal(b1-3)GlcNAc(a1-6)Gal(b1-4)GlcNAc
Procedure, shortened: as §1

Gal(b1-3)GlcNAc(b1-2)Man = biological target: Gal(b1-3)GlcNAc(b1-2)Man
Procedure, shortened: as §1

[8] = biological target: Gal(b1-3)GlcNAc(b1-2)Man(a1-3)[Gal(b1-3)GlcNAc(b1-2)Man(a1-6)]Man(b1-4)GlcNAc(b1-4)GlcNAc
Procedure, shortened: as §1

[9] = biological target: Gal(b1-3)GlcNAc(b1-2)Man(a1-3)[Gal(b1-3)GlcNAc(b1-2)Man(a1-6)]Man(b1-4)GlcNAc(b1-4)[Fuc(a1-6)]GlcNAc
Procedure, shortened: as §1

[10] = biological target: Gal(b1-3)GlcNAc(b1-2)Man(a1-3)[GlcNAc(b1-4)][Gal(b1-3)GlcNAc(b1-2)Man(a1-6)]Man(b1-4)GlcNAc(b1-4)GlcNAc
Procedure, shortened: as §1

[11] = biological target: Gal(b1-3)GlcNAc(b1-2)[Gal(b1-3)GlcNAc(b1-6)]Man(a1-6)[Gal(b1-3)GlcNAc(b1-2)Man(a1-3)]Man(b1-4)GlcNAc(b1-4)GlcNAc
Procedure, shortened: as §1

[12] = biological target: Gal(b1-3)GlcNAc(b1-3)Gal(b1-3)GlcNAc
Procedure, shortened: as §1

[13] = biological target: Gal(b1-3)GlcNAc(b1-3)Gal(b1-4)Glc
Procedure, shortened: as §1

[14] = biological target: Gal(b1-3)GlcNAc(b1-3)Gal(b1-4)GlcNAc
Procedure, shortened: as §1

[15] = biological target: Gal(b1-3)GlcNAc(b1-3)Gal(b1-4)GlcNAc(b1-2)Man(a1-3)[Gal(b1-3)GlcNAc(b1-3)Gal(b1-4)GlcNAc(b1-2)Man(a1-6)]Man(b1-4)GlcNAc(b1-4)GlcNAc
Procedure, shortened: as §1

[16] = biological target: Gal(b1-3)GlcNAc(b1-3)Gal(b1-4)GlcNAc(b1-2)[Gal(b1-3)GlcNAc(b1-3)Gal(b1-4)GlcNAc(b1-6)]Man(a1-6)[Gal(b1-3)GlcNAc(b1-3)Gal(b1-4)GlcNAc(b1-2)Man(a1-3)]Man(b1-4)GlcNAc(b1-4)[Fuc(a1-6)]GlcNAc
Procedure, shortened: as §1

[17] = biological target: Gal(b1-3)GlcNAc(b1-3)Gal(b1-4)GlcNAc(b1-3)Gal(b1-4)GlcNAc(b1-2)[Gal(b1-3)GlcNAc(b1-3)Gal(b1-4)GlcNAc(b1-3)Gal(b1-4)GlcNAc(b1-6)]Man(a1-6)[Gal(b1-3)GlcNAc(b1-3)Gal(b1-4)GlcNAc(b1-3)Gal(b1-4)GlcNAc(b1-2)Man(a1-3)]Man(b1-4)GlcNAc(b1-4)[Fuc(a1-6)]GlcNAc
Procedure, shortened: as §1

[18] = biological target: Gal(b1-3)GlcNAc(b1-3)Gal(b1-4)GlcNAc(b1-6)[Gal(b1-3)GlcNAc(b1-3)]Gal(b1-4)Glc
Procedure, shortened: as §1

[19] = biological target: Gal(b1-3)GlcNAc(b1-3)Gal(b1-4)[Fuc(a1-3)]GlcNAc
Procedure, shortened: as §1

[20] = biological target: Gal(b1-3)GlcNAc(b1-3)Gal(b1-4)[Fuc(a1-3)]GlcNAc(b1-6)[Gal(b1-3)GlcNAc(b1-3)]Gal(b1-4)Glc
Procedure, shortened: as §1

[21] = biological target: Gal(b1-3)GlcNAc(b1-3)GalNAc
Procedure, shortened: as §1

[22] = biological target: Gal(b1-3)GlcNAc(b1-6)Gal(b1-4)GlcNAc
Procedure, shortened: as §1

[23] = biological target: Gal(b1-3)GlcNAc(b1-6)GalNAc
Procedure, shortened: as §1

[24] = biological target: Gal(b1-3)GlcNAc(b1-6)[Gal(b1-3)]GalNAc
Procedure, shortened: as §1

Gal(b1-3)GlcNAc6S = biological target: Gal(b1-3)GlcNAc6S
Procedure, shortened: as §1

[25] = biological target: Gal(b1-3)[Fuc(a1-4)]GlcNAc
Procedure, shortened: as §1

[26] = biological target: Gal(b1-3)[Fuc(a1-4)]GlcNAc(b1-2)Man
Procedure, shortened: as §1

[27] = biological target: Gal(b1-3)[Fuc(a1-4)]GlcNAc(b1-2)Man(a1-3)[Gal(b1-3)[Fuc(a1-4)]GlcNAc(b1-2)Man(a1-6)]Man(b1-4)GlcNAc(b1-4)[Fuc(a1-6)]GlcNAc
Procedure, shortened: as §1

[28] = biological target: Gal(b1-3)[Fuc(a1-4)]GlcNAc(b1-3)Gal(b1-3)[Fuc(a1-4)]GlcNAc
Procedure, shortened: as §1

[29] = biological target: Gal(b1-3)[Fuc(a1-4)]GlcNAc(b1-3)Gal(b1-4)[Fuc(a1-3)]GlcNAc
Procedure, shortened: as §1

[30] = biological target: Gal(b1-3)[Fuc(a1-4)]GlcNAc(b1-6)GalNAc
Procedure, shortened: as §1

[31] = biological target: Gal(b1-3)[GlcNAc(b1-6)]GalNAc
Procedure, shortened: as §1

[32] = biological target: Gal(b1-3)[Neu5Ac(a2-6)]GalNAc
Procedure, shortened: as §1

[33] = biological target: Gal(b1-3)[Neu5Ac(a2-6)]GlcNAc(b1-4)Gal(b1-4)Glc
Procedure, shortened: as §1

[34] = biological target: Gal(b1-3)[Neu5Ac(b2-6)]GalNAc
Procedure, shortened: as §1

Gal(b1-4)Gal = biological target: Gal(b1-4)Gal
Procedure, shortened: as §1

[35] = biological target: Gal(b1-4)GalNAc(a1-3)[Fuc(a1-2)]Gal(b1-4)GlcNAc
Procedure, shortened: as §1

B1: MSMEG3662-2a (Mycobacterium smegmatis), A0QYH7_MYCS2 (protein)
chain: MGDTLTAGQKLERGGSLQSGNGAYTLTLQDDGNLVLYARDKAVWSTGTNGQDVVRAEVQTDGNFVLYTAEKPVWHTDTKGKKEVKLVLQDDRNLVLYAKDGPAWSSKTDTTEPPPPAPEPEKEAEVAPAAAEEAAPAPVAEPAPAEPAPAAPPPAPPAPRTYTVVSGDTLWAIAERFYGDGSKYQQIADASGIANPDLIHPGQVLTIP
Q: What does the source list for B1?
A: glycan array binding signal (z-score) (Gal(a1-6)Glc): -0.196; glycan array binding signal (z-score) (Gal(b1-2)Gal): -0.154; glycan array binding signal (z-score) (Gal(b1-3)Gal): -0.099; glycan array binding signal (z-score) (Gal(b1-3)Gal(b1-4)GlcNAc): -0.091; glycan array binding signal (z-score) (Gal(b1-3)GalNAc): -0.058; glycan array binding signal (z-score) [1]: -0.196; glycan array binding signal (z-score) [2]: -0.15; glycan array binding signal (z-score) (Gal(b1-3)GalNAc(b1-3)Gal): -0.147; glycan array binding signal (z-score) [3]: -0.084; glycan array binding signal (z-score) [4]: -0.005; glycan array binding signal (z-score) [5]: -0.049; glycan array binding signal (z-score) (Gal(b1-3)GlcNAc): -0.053; glycan array binding signal (z-score) [6]: 0.018; glycan array binding signal (z-score) [7]: -0.107; glycan array binding signal (z-score) (Gal(b1-3)GlcNAc(b1-2)Man): -0.112; glycan array binding signal (z-score) [8]: -0.013; glycan array binding signal (z-score) [9]: -0.162; glycan array binding signal (z-score) [10]: -0.022; glycan array binding signal (z-score) [11]: 0.06; glycan array binding signal (z-score) [12]: -0.094; glycan array binding signal (z-score) [13]: -0.073; glycan array binding signal (z-score) [14]: -0.228; glycan array binding signal (z-score) [15]: -0.05; glycan array binding signal (z-score) [16]: 0.25; glycan array binding signal (z-score) [17]: 0.092; glycan array binding signal (z-score) [18]: -0.082; glycan array binding signal (z-score) [19]: -0.048; glycan array binding signal (z-score) [20]: -0.062; glycan array binding signal (z-score) [21]: -0.02; glycan array binding signal (z-score) [22]: -0.238; glycan array binding signal (z-score) [23]: -0.129; glycan array binding signal (z-score) [24]: -0.135; glycan array binding signal (z-score) (Gal(b1-3)GlcNAc6S): -0.125; glycan array binding signal (z-score) [25]: -0.12; glycan array binding signal (z-score) [26]: -0.109; glycan array binding signal (z-score) [27]: -0.061; glycan array binding signal (z-score) [28]: -0.162; glycan array binding signal (z-score) [29]: 0.029; glycan array binding signal (z-score) [30]: -0.111; glycan array binding signal (z-score) [31]: 0.02; glycan array binding signal (z-score) [32]: -0.105; glycan array binding signal (z-score) [33]: -0.186; glycan array binding signal (z-score) [34]: 0.064; glycan array binding signal (z-score) (Gal(b1-4)Gal): 0.013; glycan array binding signal (z-score) [35]: -0.098
